# Data as given in PubChem BioAssay AID488969 (Vanderbilt High Throughput Screening Facility, 2010).
# The full ranking holds about 110,000 compounds; the median of “z-score” is about -0.1, and the highest 2% start at about 2. The list shows a part of the results. Calls of active or inactive are those of the source.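 The calls were made as follows: active = z-score in the third read window above 3 or below -3; inactive = the rest.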
# Molecular target: Metabotropic glutamate receptor 8 (Rattus norvegicus) (UniProt P70579)
# Assay: mGluR8 Gi/Go-coupled signaling modulation – cell-based, rat, thallium flux, HTS, primary screen (AID 488969)
# Settings: HEK293 rat mGluR8, GIRK (G protein-gated inwardly rectifying potassium channel) thallium flux, FluoZin2; at 10 µM; stronger effect = higher value; submaximal glutamate (EC20) added with thallium
# Chain of UniProt P70579 (P70579 whole entry, looked up): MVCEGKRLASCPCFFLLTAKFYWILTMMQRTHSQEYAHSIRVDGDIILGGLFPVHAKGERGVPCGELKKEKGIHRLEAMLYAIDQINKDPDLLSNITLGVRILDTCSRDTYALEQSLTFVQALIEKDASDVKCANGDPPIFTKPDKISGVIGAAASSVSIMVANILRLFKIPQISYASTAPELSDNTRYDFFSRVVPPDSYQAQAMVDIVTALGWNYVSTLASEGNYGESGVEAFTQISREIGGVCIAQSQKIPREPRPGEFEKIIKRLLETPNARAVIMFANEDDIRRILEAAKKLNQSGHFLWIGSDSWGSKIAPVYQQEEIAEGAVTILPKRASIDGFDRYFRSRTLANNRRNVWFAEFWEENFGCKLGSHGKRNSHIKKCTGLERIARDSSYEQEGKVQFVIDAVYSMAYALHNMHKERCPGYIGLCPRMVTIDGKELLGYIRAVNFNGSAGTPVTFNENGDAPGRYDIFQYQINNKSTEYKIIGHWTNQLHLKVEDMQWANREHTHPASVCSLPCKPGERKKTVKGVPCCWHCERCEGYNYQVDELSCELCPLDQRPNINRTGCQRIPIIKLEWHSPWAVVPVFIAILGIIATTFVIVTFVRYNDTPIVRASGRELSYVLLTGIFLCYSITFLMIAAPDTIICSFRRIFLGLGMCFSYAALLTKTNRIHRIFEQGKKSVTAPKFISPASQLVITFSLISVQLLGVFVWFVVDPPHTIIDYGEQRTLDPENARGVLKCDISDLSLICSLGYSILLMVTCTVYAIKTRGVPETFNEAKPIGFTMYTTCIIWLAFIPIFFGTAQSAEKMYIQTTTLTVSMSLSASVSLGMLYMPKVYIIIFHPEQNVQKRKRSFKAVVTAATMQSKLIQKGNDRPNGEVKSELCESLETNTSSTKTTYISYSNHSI
row,SMILES,z-score
1,COc1cc2c(cc1OC)C(c1ccncc1)CC(=O)N2 (stereo not drawn),0.215
2,Cc1cccc(NS(=O)(=O)c2ccc(C3CCCCC3)cc2)n1,0.108
3,COc1ccc(-c2noc(C3CCCN(S(=O)(=O)c4cccc(Cl)c4)C3)n2)cc1OC (stereo not drawn),0.0265
4,O=C(Oc1cccc2c(OC(=O)N3CCOCC3)cccc12)N1CCOCC1,-0.205
5,O=C1NC(=S)N/C1=C\c1cccc([N+](=O)[O-])c1,0.776
6,COC(=O)CSc1nnc(CNC(=O)Cc2ccccc2)n1C,-0.397
7,COC(=O)c1ccc(Oc2ccc3nncn3n2)cc1,-0.148
8,CNC(=O)c1cc2cc(Cl)cc(OC)c2oc1=O,-0.116
9,Oc1ccc(Br)cc1-c1cc(-c2ccc(Cl)cc2)n[nH]1,0.0892
10,CCOC(=O)c1c(NC(=O)Cn2nc([N+](=O)[O-])c(Br)c2C)sc2c1CCC(C)C2 (stereo not drawn),0.483
11,O=C(Nc1c(F)cc(F)cc1Br)c1ccco1,0.609
12,Cc1ccc(SCCNC(=S)Nc2cc(C)ccc2C)cc1,-0.215
13,Oc1c(C=C2N=c3ccccc3=N2)sc(=S)n1-c1ccc(F)cc1,0.283
14,CC1CCN(C(=O)CSc2nnc(-c3ccc(S(=O)(=O)N4CCOCC4)cc3)n2C)CC1,0.855
15,CC(C)(C)c1[nH]nc2c1C(c1ccncc1)C(C#N)=C(N)O2 (stereo not drawn),-0.619
16,O=C(O)/C=C\C(=O)Nc1ccccc1F,0.0594
17,COc1ccc(NC(=O)CCC(=O)OCc2ccc(C(=O)Oc3ccc(Cl)cc3)cc2)cc1,-0.22
18,COc1ccc(C(=O)CSc2nnc(CNc3nc(-c4ccccc4)cs3)n2C)cc1,-0.0858
19,O=C(CSc1ccccn1)N1CCN(c2cccc(Cl)c2)CC1,-0.00977
20,COC(=O)c1cc(NC(=O)c2ccoc2C)cc(C(=O)OC)c1,active: 4.89
21,Cc1nn(-c2ccccc2)c(N)c1N=Nc1ccccc1,-0.356
22,Cc1ccc(N=Nc2c(N)[nH]n3c(=O)cc(C)nc23)cc1,-0.294
23,O=C(c1cc2c(s1)CCCC2)N1CCN(Cc2ccc3c(c2)OCO3)CC1,-0.76

row,SMILES,z-score
1,Cc1ccc(S(=O)(=O)N(C)Cc2nc(-c3ccc(Br)cc3)no2)cc1,-0.28
2,Cc1cc(=O)n2nc(N3CCCC(C(=O)NC(C)c4ccccc4)C3)sc2n1 (stereo not drawn),-0.086
3,CC(C)(C)c1cc2cccnc2n1Cc1cccc(Cl)c1,-0.113
4,Cc1onc(-c2ccccc2)c1C(=O)n1cc(Br)cn1,-0.588
5,CC(C)Cn1c(-c2ccccc2F)n[nH]c1=S,0.078
6,COc1ccc(S(=O)(=O)N2CCC[C@H]2C(=O)NC2=NCCS2)cc1,-0.0506
7,CCc1nnc(NC(=O)[C@@H](NC(=O)c2cccc(S(=O)(=O)N3CCOCC3)c2)C(C)C)s1,-0.734
8,CC1Cc2ccccc2N1C(=O)c1ccc2snnc2c1 (stereo not drawn),-1.46
9,CCCC1=C(C(=O)OCC)C(c2ccc(O)cc2)n2ncnc2N1 (stereo not drawn),-1.1
10,CC(C)OCCCNC(=O)c1sc(=S)n(C)c1N,-0.0619
11,COc1ccc2[nH]c(C)c(CCN3C(=O)C4C5C=CC(C5)C4C3=O)c2c1 (stereo not drawn),-0.454
12,Oc1[nH]c2ccccc2c1C=Nc1ccc2c(c1)OCCO2,0.883
13,O=C1CSC(c2cccc(Cl)c2Cl)N1c1ccccn1 (stereo not drawn),0.398
14,CCn1c(C)nc2cc(C(=O)NNS(=O)(=O)c3c(C)c(C)cc(C)c3C)ccc21,-0.328
15,COc1cc(CN2CC(=O)N(c3ccc(C)c(C)c3)C2=S)cc(OC)c1OC,-0.981
16,Cc1ccc(/C(N)=N/OC(=O)c2ccc(F)cc2)cc1,-0.0315
17,CC1=NN(c2nc(-c3ccc(C)cc3)cs2)C(=O)C1N=Nc1ccc2ccccc2c1 (stereo not drawn),0.0348
18,CC(C)Nc1nc(NC(C)C)nc(N(C)N)n1,-0.143
19,O=C(O)c1cccc(S(=O)(=O)N2CCOCC2)c1,0.438
20,COc1cc(C(=O)N2CCN(C(=O)COc3ccc4ccccc4c3)CC2)cc(OC)c1OC,0.348
21,Cc1ccn2c(C(=O)c3ccc(Cl)cc3)cnc2c1,0.282
22,Cc1ccccc1SCc1noc(C(=O)NC(C)C)c1C(=O)O,-0.223
23,CCCN1C(=O)/C(=C\c2ccncc2)SC1=Nc1ccccc1,0.523

row,SMILES,z-score
1,C=CCn1c(NCCc2ccccc2)nc2c1c(=O)n(C)c(=O)n2C,0.0292
2,c1ccc2c(c1)CCN(c1nc3ccccc3n3cnnc13)C2,-0.508
3,O=C(NCc1ccc(Cl)cc1)c1ccc(COCC(F)(F)F)o1,-0.172
4,CCN(CC)C(=O)CSc1nc2c(sc(=S)n2-c2ccccc2)c(=O)n1Cc1ccco1,-0.562
5,O=S(=O)(c1ccc(Cl)cc1)c1cnc(-c2cccnc2)nc1-c1ccccc1,-0.132
6,CCOCC(=O)Nc1c(C(=O)Nc2ccc(OC)cc2OC)oc2ccccc12,0.0425
7,CCN1CCN(C(=S)Nc2ccc3nc(N4CCN(C)CC4)cc(C)c3c2)CC1,0.0989
8,C=C(C)C1CC=C(C)/C(=N/NC(=O)c2cccc([N+](=O)[O-])c2)C1 (stereo not drawn),0.396
9,Cc1nonc1NC(=O)N1CCCC1,-0.0831
10,CCOC(=O)N1CCN(C(=O)c2nc3ccccc3s2)CC1,2.8
11,CCCOc1ccc(/C=N/Nc2ccccc2[N+](=O)[O-])c(O)c1,-0.138
12,Cc1ccc(C(=O)CSc2nnc(COc3ccc(C#N)cc3)n2-c2ccccc2)cc1,0.655
13,CC(=O)Nc1ccc2ccccc2c1,-0.118
14,CC(=O)N1N=C(C)CC1c1ccc(OCc2ccccc2)cc1 (stereo not drawn),-0.0267
15,CSc1nc2ccc3nc(NC(=O)c4ccc(C)cc4)sc3c2s1,-0.276
16,Cc1n[nH]c(C)c1C(=O)CC1(O)C(=O)N(CCc2ccccc2)c2ccc(Cl)cc21 (stereo not drawn),0.473
17,Cc1cccc(Oc2coc3cc(OC(=O)c4cc5ccccc5oc4=O)ccc3c2=O)c1,-0.0322
18,NC(=S)Nc1nc2ccccc2[nH]c1=O,0.608
19,CCC(C(=O)O/N=C(\N)c1cccc(C)c1)c1ccccc1 (stereo not drawn),-0.667
20,O=C(COC(=O)c1cccnc1Cl)c1cccc(Cl)c1,-0.133
21,CCC1CCCCN1C(=O)CSc1nnc(-c2cccs2)o1 (stereo not drawn),0.801
22,O=C1c2cccc(OCC(=O)N3CCCc4ccccc43)c2CCN1Cc1ccc(Br)cc1,-0.133
23,N#Cc1ccc(Cl)cc1NC(=O)COC(=O)c1ccc2c(c1)OCCO2,0.363

row,SMILES,z-score
1,c1ccc(OCc2nc(-c3cccs3)no2)cc1,0.455
2,COc1ccc2nc(SCC(=O)NC(C)C)[nH]c2c1,0.0246
3,N#Cc1c(-c2cccnc2)c2c([nH]c1=S)CCCC2,-0.285
4,Cc1ccc(N(c2ncnc(N)c2[N+](=O)[O-])C2CCCCC2)cc1,-0.189
5,CCN(CC)S(=O)(=O)c1ccc(S(=O)(=O)N(CC(=O)Nc2ccccc2)Cc2ccco2)cc1,-0.083
6,COC(=O)c1ccc(CSc2nc3ccccc3[nH]2)o1,0.0676
7,Cc1ccc(OCC(=O)N/N=C/c2cccn2C)cc1,1.01
8,COn1c2c(c3c4nonc4ccc31)CCCC2,-0.606
9,CCCSc1nnc2n(N)c(=O)c3ccccc3n12,-0.437
10,CCC(=O)Nc1c2c(nn1-c1ccccc1C)CSC2,-0.809
11,CCCCOc1ccc(NC(=O)CSc2nnnn2C)cc1,0.6
12,N#C/C(=C/c1ccc(Sc2nc3ccccc3[nH]2)o1)c1cccc(Br)c1,-0.0515
13,CCc1nnc(-n2nc(C)cc2-c2ccccc2)n1N,0.0616
14,CC1(C)C(C=C(Cl)Cl)C1C(=O)N(Cc1cccc(Cl)c1)C1CCS(=O)(=O)C1 (stereo not drawn),-0.0797
15,N#Cc1cc(C(=O)c2ccccc2OCC(=O)Nc2ccccc2Cl)cn(C2CCCCC2)c1=O,-0.433
16,CCn1c(C)cc2c(c1=O)C(c1ccc3c(c1)OCO3)C(C#N)=C(N)O2 (stereo not drawn),-0.0565
17,CCOC(=O)N1CCC(N2CCN(S(=O)(=O)c3ccc(NC(C)=O)cc3)CC2)CC1,0.0347
18,CC1=CC(C)C2COC(c3ccc[n+](C)c3)C1C2C (stereo not drawn),0.134
19,COc1ccc(N2C(=O)c3ccc(NC(C)=O)cc3C2=O)cc1,-0.144
20,COc1ccc(NC(=S)NNC(=O)COc2ccc(Cl)cc2Cl)cc1,2.95
21,CC(C)O/C(=N\S(=O)(=O)c1ccc(Cl)cc1)c1ccccc1,0.0356
22,Cc1[nH]c2ccccc2c1C(=O)COC(=O)Cn1c(C(F)(F)F)nc2ccccc21,-0.292
23,Cc1cccc(NC(=O)c2ccc(Cn3cc(C(F)(F)F)ccc3=O)cc2)c1,-0.228

row,SMILES,z-score
1,CC(=O)Oc1ccc(C(=O)Cc2ccc3ccccc3n2)c(O)c1C,-0.4
2,CCCn1c(C)cc(C(=O)CN2C(=O)c3cccc(N)c3C2=O)c1C,-0.305
3,Cc1c(C(=O)OC2CCCCC2)[nH]c2c1C(=O)CC(C)(C)C2,-0.811
4,CC(=O)Nc1ccc(N(C)S(C)(=O)=O)cc1,-0.158
5,CCc1c(C)sc(NC(=O)CSc2nc3c(c(C(F)(F)F)n2)CCc2ccccc2-3)c1C#N,-0.14
6,CCC(=O)N1CCN(c2ccc(NC(=O)c3cccs3)cc2)CC1,-0.0578
7,CC1(C)CC(CCNC(=O)c2ccco2)CC(C)(C)N1,-0.0338
8,Cc1cc(C(=O)NC2=NCCS2)cs1,0.654
9,CC(=O)Nc1ccc(C(=O)OCC(=O)c2cccc([N+](=O)[O-])c2)cc1,-0.304
10,Cc1nc2ccccn2c1C(=O)N/N=C/c1ccc2c(c1)OCO2,0.65
11,CC(=O)Oc1oc(-c2ccccc2)nc1C=Nc1ccccc1,-1.82
12,CCC(=O)N1CCN(c2ccc(NC(=O)c3cc4ccccc4o3)cc2Cl)CC1,-0.0929
13,CCc1ccc(NC(=O)CCn2cccc2)cc1,-0.0565
14,COC(=O)Nc1nnc(-c2ccncc2)s1,0.038
15,O=C(CSCc1ccc(F)cc1)Nc1ccccc1C(=O)N1CCOCC1,-0.0357
16,CC1CCC(C(C)C)C(OC(=O)CSc2nccc(=O)[nH]2)C1 (stereo not drawn),-0.0251
17,COc1ccc(OC)c(C(c2nnnn2CCc2ccccc2)N2CCN(c3ccccc3)CC2)c1 (stereo not drawn),-0.183
18,Cc1cc(NC(=O)CSc2nc(C3CCCCC3)nc3ccccc23)no1,0.0268
19,C#CC[N+](C)(C)C(C#Cc1ccccc1)CC=C (stereo not drawn),-0.0714
20,Cc1cc(OCc2nn[nH]n2)c2c(C)c(Cc3ccccc3)c(=O)oc2c1,-0.914
21,Cc1ccc(C(=O)Nc2ccccc2C(=O)NC(CC(=O)O)C(=O)O)cc1 (stereo not drawn),-0.0295
